The source of these data is PubChem BioAssay (NCI).

The test system of this test is NCI-H322M lung. Kind of test: NCI anticancer screen, dose series, 48 h.

Several values for one entry are separate records, joined by “and”; a condition that tells them apart may be missing. Equal values may be shown once.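 Assay format: 96-well plates, 48-hour exposure. Here, GI50 denotes the concentration required for 50% inhibition of growth. TGI is the concentration that stops growth completely.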

On to `CN1C(=O)C(CC(=O)O)NC1=S` (centres undefined), for which the TGI was over 100 µM. On to `Oc1cc(-c2ccc(Cl)cc2)cn2c1nc1ccccc12`, for which the TGI was over 100 µM.

`COc1ccc(C(=O)/C=C/c2ccc3c(c2)OCO3)c(OCc2ccccc2)c1` returned a TGI of over 100 µM.

With `NCCN.NCCN.O=C([O-])CCl.O=C([O-])CCl.[Co+3].[O-][Cl+3]([O-])([O-])[O-]`, the GI50 was over 100 µM and the TGI is over 100 µM. Regarding `COc1cc(/C=C/C(=O)c2c(C)nc3ccccc3c2/C=C/c2ccc(C)cc2)cc(OC)c1OC`, the GI50 is 2.24 µM and the TGI is 6.62 µM. `CC1(c2cccc(Cl)c2)CC(c2cccc(Cl)c2)=C(C#N)C(=C(C#N)C#N)N1` (centres undefined) had a TGI of 42.5 µM.

As for `C=CCc1ccccc1CC1(OCC)OC(=O)c2ccccc21` (centres undefined), the TGI is over 100 µM. Same read-out and setting: the value for `O=C(Cc1ccc(Cl)cc1)Nc1ccc2oc(-c3ccccc3)nc2c1` was over 100 µM. Still for that read-out and setting: the value for `Nc1c([N+](=O)[O-])cc2c3c(cccc13)CC2` was over 100 µM. Same read-out and setting: the value for `Cc1cc(NS(=O)(=O)c2ccc(NC(=O)c3ccc(Cl)c4c(Nc5ccc(S(=O)(=O)N=C(N)N)cc5)c5ccccc5nc34)cc2)no1` was over 100 µM; that for `Cc1cc2nc(N3C(=O)/C(=C/c4ccccc4S)N=C3c3ccccc3)sc2cc1C` was over 100 µM.

Consider `COc1ccc(CC(=O)NCCc2ccc(OC)c(OC)c2)cc1Br`, for which the TGI is over 100 µM. On to `Cc1c(F)c(N)c2c(=O)cc(-c3ccc(N)c(F)c3)oc2c1F`, for which the TGI was 60.3 µM. `COc1cccc(N2C(=O)/C(=C\c3ccccc3)SC2c2cc(OC)c(OC)c(OC)c2)c1` (centres undefined) registered a TGI of over 100 µM. `CC1(C)C/C(=N/O)c2c(nc3ccc4ccccc4c3c2-c2ccc(Cl)cc2)C1` displayed a TGI of over 100 µM. With `NC1=C(c2nc(-c3ccccc3)cs2)C(c2ccc(Br)cc2)c2c(c3ccccc3oc2=O)O1` (centres undefined), the GI50 was over 150 µg/mL and the TGI is over 150 µg/mL.

`Cc1ccc(N=Nc2ccc(N)cc2C)c(S(N)(=O)=O)c1` displayed a TGI of over 100 µM. With `CCCCN(Cc1ccccc1)C(=NC#N)N(Cc1ccccc1)Cc1ccccc1`, the TGI is over 100 µM. In turn, `COc1ccc(NC(=O)/C(=N/NC(N)=S)C2C(=O)NC(=S)NC2=O)c(OC)c1` returned a TGI of over 100 µM.

In the case of `Cc1ccc(N2CCC3(CC2)OCCO3)cc1`, the TGI was over 100 µM. Still for that read-out and setting: with `Cc1ccc(C2=C(C#N)C(=O)N3CCN=C3S2)cc1` the figure was over 100 µM. In the case of `COc1ccc(-n2cc(-c3cc(OC)c(OC)c(OC)c3)nc2SCc2ccccc2)cc1OC`, the GI50 is over 100 µM and the TGI is over 100 µM. On to `CN(C)CC1C(=O)O[C@H]2[C@H]1CC/C(COC(=O)c1cc3ccccc3[nH]1)=C\CC[C@@]1(C)O[C@@H]21` (some centres undefined), for which the GI50 is 11.9 µM and the TGI is 25.8 µM. `CN1CCCOC(c2ccc([N+](=O)[O-])cc2)O1` (centres undefined) showed a TGI of over 100 µM.

As to `COc1ccccc1C1c2cc3c(cc2OC(O)(CO)C1C(=O)O)OCO3` (centres undefined) (tested in a mixture with another compound), the TGI is over 100 µM.

In the case of `N#CCCN(c1ccc(C=Nc2ccccc2Cl)cc1)S(=O)(=O)c1ccccc1`, the TGI was over 100 µM.

With `Oc1ccccc1C=Nc1nc(SCc2ccccc2)nc2[nH]ncc12`, the GI50 was 3.39 µM and the TGI was over 100 µM. `Cc1cc2sc(C)[n+](CCCOS(=O)(=O)[O-])c2cc1C` gave a TGI of over 100 µM. Still for that read-out and setting: the value for `CC(=O)OCC(=O)[C@@]12OC(C)(C)O[C@@H]1C[C@H]1[C@@H]3CC=C4C[C@@H](O)CC[C@]4(C)[C@H]3CC[C@@]12C` was over 100 µM; that for `CC(=O)C(CN(Cc1ccccc1)Cc1ccccc1)C(c1ccccc1)c1c(O)c2ccccc2oc1=O` (centres undefined) was over 100 µM. Same read-out and setting: the value for `CC(C)=c1sc(=C(C)C)c2c1=NC(C)(C)N=2` was over 100 µM. `COc1cc(C(O)C(=O)c2nc3ccc([N+](=O)[O-])cc3[nH]c2=O)ccc1O` (centres undefined) came in with a TGI of over 100 µM. On to `COc1cc(Cl)cc(-c2nn(-c3cccc(NC(=O)Nc4cc(C(F)(F)F)cc(C(F)(F)F)c4)c3)cc2-c2ccncc2)c1`, for which the GI50 is 1.27 µM and the TGI worked out at 11.5 µM. `O=[N+]([O-])c1cc2c(c([N+](=O)[O-])c1)NCc1ccccc1O2` displayed a TGI of over 100 µM.

Regarding `O=P1(c2ccccc2)C(c2ccccc2)=CC=C1c1ccccc1`, the TGI was over 100 µM. Consider `CC1OC(OC2C(OC(=O)[C@@H]3CC(C)(C)C[C@@H]4C5=CC[C@@H]6[C@@]7(C)C[C@H](O)[C@H](OC8OC(CO)C(O)C(O)C8O)[C@@](C)(CO)C7[C@H](O)C[C@@]6(C)[C@]5(C)C[C@@H](O)[C@H]43)OCC(O)C2O)C(O)C(O)C1O` (some centres undefined), for which the TGI was over 15 µM. `C=CCN1C(=O)/C(=C/c2ccc(C)cc2)NC1=S` gave a TGI of over 100 µM. Same read-out and setting: the value for `OC1[C@H](O)CN(OCc2ccccc2)C[C@@H]1O` (some centres undefined) was over 100 µM; that for `O=C(NNCc1ccco1)c1cc2ccccc2[nH]1` was over 100 µM. For the molecule `COC(=O)C1CCCN1C(=O)[C@@H]1CCCN1C(=O)[C@H](Cc1c[nH]c2ccccc12)NC(=S)Nc1cc(C(F)(F)F)cc(C(F)(F)F)c1` (some centres undefined), the GI50 is 4.38 µM and the TGI was found to be 17.2 µM. As for `Cc1ccc(NC(=O)C(=O)CC(=O)c2c(C)n([O-])c3ccccc3[n+]2=O)cc1`, the TGI worked out at 57.9 µM.

`O=[N+]([O-])c1cc(C2SCc3nc4ccccc4n32)ccc1Cl` (centres undefined) returned a TGI of over 100 µM.

Turning to `COC(=O)NN=C1C(C)(C)C(=O)C1(C)C`, the TGI is over 100 µM. `CC1(O)CC(c2nc(-c3ccc4ccc(-c5ccccc5)nc4c3)c3c(N)nccn23)C1` (centres undefined): the GI50 is 2.25 µM and 1.86 µM; the TGI is over 100 µM. Consider `O=S(Nc1ccccc1)c1ccc(Cl)c(Cl)c1` (centres undefined), for which the TGI is over 100 µM.
